# Measurements taken from PubChem BioAssay AID686971 (National Center for Advancing Translational Sciences (NCATS), 2013).
# About 7,500 (2.1%) of roughly 360,000 compounds were called active. Inconclusive results, whose numbers are uncertain, are shown with a selection of clear calls. The call rests on the fitted dose curve; in most records, active means well fitted cell-killing curve with a large enough effect; inconclusive means small, poorly fitted or top-dose-only effect, or effect the other way, or another doubt; inactive means no such curve, though single readings can be large or run the other way. Potencies of inconclusive entries are left out as doubtful fits.
# Experiment: qHTS for induction of synthetic lethality in tumor cells producing 2HG: qHTS for the HT-1080-IDH1KD cell line;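 on activity, negative = toxicity: 0% = DMSO wells and -100% = cell-free medium wells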
# Conditions: HT-1080 IDH1 knockdown viability, ATP luminescence, 48 h; activity, negative = toxicity: at 46.1 µM (top of the series) unless noted
# In short: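 IDH1KD HT-1080 cells, 750/well, RPMI + 5% FBS; compound pinned after 2 h settling; 48 h, 37 °C; CellTiter-Glo luminescence; % activity normalised to DMSO and no-cell wells; curves fitted, classed by r2 and efficacy.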
# Potency means the concentration at half of the fitted maximal effect; tags describe the fitted curve by direction and shape.
SMILES,Potency,"activity, negative = toxicity"
O=c1cc(CN2CCN(S(=O)(=O)c3cccc(Cl)c3)CC2)c2ccc(O)cc2o1,"inconclusive [cytotoxic, partial curve]",–
CCOC(=O)c1cc(C)nnc1C(=O)OCC,–,inactive: 4.06%
CCOC(=O)CSc1c(-c2cccs2)[nH]c2ccccc12,"inconclusive [cytotoxic, single point]",–
CCCCCCCNC1=CC(=O)CC(c2ccccc2)C1 (stereo not given),active: 16.4 µM,–
Cc1[nH]nc2ncc(C(=O)c3ccccc3O)cc12,"inconclusive [cytotoxic, partial curve]",–
Brc1ccc2[nH]c3nc(SCCN4CCOCC4)nnc3c2c1,"inconclusive [cytotoxic, partial curve]",–
Cc1ccc(NS(=O)(=O)c2csc(C(N)=O)c2)c(C)c1,–,inactive: 0.294%
O=C(Nc1ccc(Cl)c(Cl)c1)C1C2C=CC3(O2)C1C(=O)N(CCN1CCCCC1)C3C(=O)NC1CCCCC1 (stereo not given),"inconclusive [cytotoxic, single point]",–
COCCNC(=O)c1ccc(-n2c(SCc3cccnc3)nc3ccccc3c2=O)cc1,"inconclusive [cytotoxic, partial curve]",–
CCN1/C(=C/c2cc[n+](C)cc2)C=Cc2cc(C)ccc21,"inconclusive [cytotoxic, full curve]",–
COc1ccc2c(c1)[C@H]1[C@H](CO2)[C@H](c2ccccc2)[C@]2(C)C(=O)Nc3ccc(F)cc3C(=O)N12,"inconclusive [cytotoxic, single point]",–
COc1cccc(Sc2ccccc2/C=N/NC(N)=O)c1,"inconclusive [cytotoxic, full curve]",–
Cc1ccc(C2=NN(C(=O)CNCCO)C(c3cccs3)C2)cc1 (stereo not given),–,inactive: 9.68%
O=C(NCCCn1ccnc1)c1ccc(N2CCCCCC2)c([N+](=O)[O-])c1,active: 5.8 µM,–
Cc1ccc(NNC(=O)c2cccs2)cc1Cl,active: 5.8 µM,–
O=C(c1ccc2c3n(nc2c1)-c1ccccc1CO3)N1CCCCC1,active: 23.1 µM,–
COc1cccc(/C=C/C(=O)OCC(=O)Nc2cccc(S(=O)(=O)NC3=NCCCCC3)c2)c1,–,inactive: 0.9%
CCOc1ccc(S(=O)(=O)/N=C(\N)c2ccccc2)cc1,–,inactive: -2.24%
Cc1cc([N+](=O)[O-])cnc1N1CCOCC1,–,inactive: -2.37%
Cc1ccc(/C=N/NC(=O)NC23CC4CC(CC(C4)C2)C3)o1,"inconclusive [cytotoxic, single point]",–
OC(c1ccccc1)(c1nc(-c2cc(F)cc(F)c2)cs1)C(F)(F)F (stereo not given),"inconclusive [cytotoxic, single point]",–
COC(=O)[C@@]1(Cc2ccc(OC)cc2)[C@@H]2[C@@H](CC(=O)[C@H]2CC(=O)C(=O)N(C)C)CN1C(=O)c1ccccc1,–,inactive: -0.541%
CCN(CC)C(=S)SCC(=O)Nc1nc(-c2ccccc2)c(-c2ccccc2)o1,"inconclusive [cytotoxic, partial curve]",–

SMILES,Potency,"activity, negative = toxicity"
COc1ccc(NC(=O)C(=O)NCC(=O)Nc2cccc(C(F)(F)F)c2)cc1,–,inactive: 3.95%
CN(C)C(=O)c1cccc(-c2cc(NC=O)c3ncc(-c4ccc(F)cc4)n3c2)c1,"inconclusive [cytotoxic, single point]",–
Cc1nc2ccc(C(=O)N/N=C/c3ccccc3O)cc2[nH]1,"inconclusive [cytotoxic, partial curve]",–
CC(=O)Nc1cccc(-c2ccnc3c2CC(C)(C(=O)NCCC(F)(F)F)O3)c1 (stereo not given),"inconclusive [cytotoxic, full curve]",–
CC(C)(C)C(=O)NC(=S)NNC(=O)c1sc2ccccc2c1Cl,active: 11.6 µM,–
CCc1nnc(NC(=O)c2ccc(S(=O)(=O)N(CC)Cc3ccccc3)cc2)o1,"inconclusive [cytotoxic, partial curve]",–
CNc1oc(-c2ccc(C)cc2)nc1P(=O)(c1ccccc1)c1ccccc1,"inconclusive [cytotoxic, single point]",–
CCn1c(CNc2ccc(Cl)cc2)nnc1SCc1ccccc1,–,inactive: -12.2%
Cc1ccc(C)c(C(=O)Cn2ncc(Cl)c(Cl)c2=O)c1,active: 18.4 µM,–
Cc1ccc(S(=O)(=O)N(C)C[C@H]2Oc3cc(C#CC4CCCC4)ccc3S(=O)(=O)N([C@H](C)CO)C[C@H]2C)cc1,"inconclusive [cytotoxic, single point]",–
COc1cc(C(=O)NCCCN(C)C)ccc1OCC(=O)Nc1cccc(C(F)(F)F)c1,"inconclusive [cytotoxic, single point]",–
COc1ccc(NC(=O)c2ccc(F)cc2)cc1S(=O)(=O)Nc1cc(C)ccc1Br,"inconclusive [cytotoxic, single point]",–
O=C1CN(C(=O)COc2ccccc2F)c2ccccc2N1,"inconclusive [rising, partial curve]",–
O=C(Oc1ccccc1)c1cc(O)c(O)c(O)c1,"inconclusive [cytotoxic, full curve]",–
CC(=Nc1ccc(C)cc1)c1sc2ccccc2c1O,"inconclusive [cytotoxic, single point]",–
Cc1ccc(C(=O)CC(=O)COc2ccc(Cl)cc2)cc1,"inconclusive [cytotoxic, single point]",–
CCN(CC)c1ccc(/C=C2\CCC(/C=C(\C#N)C(=O)Nc3ccccc3F)=C2N2CCOCC2)cc1,–,inactive: 2.66%
CC1(c2cccc(Br)c2)NC(=O)N(CC(=O)Nc2ccc(N3CCCCC3)cc2)C1=O (stereo not given),"inconclusive [cytotoxic, single point]",–
COc1ccc(C(=O)C[n+]2ccc3c(c2)nc(-c2ccccc2)n3C)cc1,"inconclusive [cytotoxic, single point]",–
CN(C)CCCN(C(=O)c1ccco1)c1nc2c(F)cccc2s1,"inconclusive [cytotoxic, single point]",–
COc1ccc(C(=O)NCc2nnc(SCC(=O)Nc3cc(Cl)ccc3OC)o2)cc1,–,inactive: -0.635%
CN(c1ccc(C(=O)N/N=C/c2cccc([N+](=O)[O-])c2)cc1)S(=O)(=O)c1ccccc1,"inconclusive [cytotoxic, partial curve, poor fit]",–
